Experimental data as given in PubChem BioAssay AID686978 (National Center for Advancing Translational Sciences (NCATS), 2013).
Several values for one entry are separate records, joined by “and”; a condition that tells them apart may be missing. Equal values may be shown once. The campaign covered roughly 420,000 compounds. About 64,000 (15%) were called active. Inconclusive means that the source gave no clear call. Such entries were picked first, then a sample of the others. The call rests on the fitted dose curve; in most records, active means well fitted inhibition curve with a large enough effect; inconclusive means small, poorly fitted or top-dose-only effect; inactive means flat fitted curve, though single readings scatter. Potencies of inconclusive entries are left out as doubtful fits.

assay: qHTS for Inhibitors of human tyrosyl-DNA phosphodiesterase 1 (TDP1): qHTS in cells in absence of CPT; conditions: DT40 Tdp1-/- hTDP1 cells, no CPT, ATP luminescence, 48 h; activity change, negative = growth inhibition: at 46.2 µM (top of the series); further: nearly all actives have a fitted effect of over 55% in size
Procedure, shortened: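 Cells were dispensed at 400 per well, compounds added by pin tool, plates incubated ≥48 hr at 37 °C, then CellTiter-Glo added for 30 min at room temperature before luminescence reading. Line: DT40 Tdp1-/- complemented with hTDP1; camptothecin omitted.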
On the % scale 0 is the no-effect control and ±100 the full control effect; potency means the concentration at half of the fitted maximal effect; tags describe the fitted curve by direction and shape.

Structure (SMILES) | Potency | activity change, negative = growth inhibition
COc1ccc(CN2CCC3CC2c2cc(Cl)ccc23)cc1 (centres undefined) | active: 18.4 µM | 
N#Cc1c(N2CCOCC2)nc(N)c2c(N)nc3c(c12)CC(CCl)O3 (centres undefined) |  | inconclusive: -33.8% [inhibitor]
COc1ccc(N2CCN(C(=O)CSc3ccc(C)cc3)CC2)cc1 | inconclusive [inhibitor, single point] | 
O=C(/C=C/c1ccoc1)c1ccccc1O |  | inactive: -13.4%
COc1ccccc1N(C)S(=O)(=O)c1ccc(C(=O)NC2=NCCS2)cc1 | inconclusive [inhibitor, partial curve] | 
Cc1cc(NCc2ccccn2)n2nc(C)c(-c3ccccc3)c2n1 | active: 0.0461 µM | 
O=C(Nc1ccc(Cl)cc1C(=O)c1ccccn1)c1ccccc1 | inconclusive [inhibitor, single point] | 
COc1ccccc1-n1c(SCc2cc(=O)oc3cc(O)ccc23)nc2ccccc2c1=O | inconclusive [inhibitor, single point] | 
O=[N+]([O-])c1cccc(N2Cc3ccccc3C2)c1 | inconclusive [inhibitor, partial curve] | 
Cc1cc(-c2cc(-c3ccccc3)on2)nc(NCC2CC2)n1 |  | inactive: -16.4%
COc1ccc(N(CC(=O)Nc2cc(Cl)ccc2C)S(=O)(=O)c2c(C)noc2C)cc1 | active: 5.17 µM and active: 3.66 µM | 
CCn1c(=O)c(=O)[nH]c2cc(C(=O)NC3CCCc4ccccc43)ccc21 (centres undefined) | inconclusive [inhibitor, single point] | 
CCOC(=O)c1ccc(N2C(=O)Cc3cc(OCC)c(OCC)cc3C2c2ccccc2)cc1 (centres undefined) | active: 13 µM | 
CN(CCCCCCCCC(=O)/C=N/O)Cc1ccccc1 | inconclusive [inhibitor, single point] | 
O=C(c1ccc2c(c1)OCCO2)N(Cc1cccnc1)c1nc2c(F)cc(F)cc2s1 | inconclusive [inhibitor, single point] | 
COc1cccc(CNS(=O)(=O)c2ccc(-c3cc(C(F)(F)F)on3)s2)c1 | inconclusive [inhibitor, single point] | 
COc1ccc(Cc2nc3ccc(C(=O)NCCCN4CCN(C)CC4)cc3o2)cc1 | inconclusive [inhibitor, single point] | 
CCN(CC)C(=O)Oc1ccc2c(c1)O/C(=C\c1ccco1)C2=O | inconclusive [inhibitor, single point] | 
NC(=O)c1c(NC(=O)c2cccs2)sc2c1CCCCCC2 | inconclusive [inhibitor, single point] | 
Cc1ccccc1-c1nc(SCC(=O)NCC2CCCO2)c2c(=O)n(C)c(=O)n(C)c2n1 (centres undefined) |  | inactive: -4.92%
Cc1nc(N=Nc2cc(S(=O)(=O)O)ccc2S(=O)(=O)O)c(COP(=O)(O)O)c(C=O)c1O |  | inactive: -15.2%
O=C(OCC(=O)N1CCN(C(=O)c2ccco2)CC1)c1cc(-c2ccc(F)cc2)nc2ccccc12 |  | inactive: -15.7%

Structure (SMILES) | Potency | activity change, negative = growth inhibition
Clc1cccc(OCCN2CCNCC2)c1 | inconclusive [inhibitor, single point] | 
CC1(C)CC(=O)C(N=Nc2ccc(C(F)(F)F)cc2[N+](=O)[O-])=C(O)C1 | active: 23.1 µM | 
N#Cc1nccnc1S(=O)(=O)c1cccs1 | active: 1.03 µM | 
O=C(C[n+]1cc2ccccc2c2ccccc21)c1ccccc1 | inconclusive [inhibitor, single point] | 
Cc1ccc(S(=O)(=O)N2CCN(C(=O)c3cc4c(s3)CCCC4)CC2)c(C)c1 | inconclusive [inhibitor, partial curve] | 
OC1(c2ccccc2)CN(c2ccccc2)C2=[N+]1CCS2 (centres undefined) |  | inactive: -28.1%
OC[C@@H]1CCCN1Cc1cn(-c2ccccc2)nc1-c1ccc2c(c1)OCO2 | inconclusive [inhibitor, single point] | 
COc1ccc(NC(=O)NC23CC4(C)CC(C)(CC(C)(C4)C2)C3)cc1OC | inconclusive [inhibitor, single point] | 
CCCCCCCCn1cnc2c(N)c(C)c(C)cc21 | inconclusive [inhibitor, single point] | 
CCCN(CCC)CCNC(=O)c1cc2c(=O)n(C)c3ccccc3c2n1C | active: 18.4 µM | 
COc1ccccc1Cc1nc2ccccc2n1S(=O)(=O)c1ccc(Cl)cc1 | inconclusive [inhibitor, partial curve, poor fit] | 
O=C(CNC(=O)c1ccc(F)cc1)NCc1ccc(S(=O)(=O)N2CCOCC2)cc1 |  | inactive: -14.5%
COc1ccc(N2CCN(C(=O)c3sc4nc5n(c(=O)c4c3C)CCC5)CC2)cc1 | active: 23.1 µM | 
C=CCNC(=S)N(Cc1ccccc1)Cc1ccc(F)cc1 |  | inactive: -45.6%
COc1cccc(-c2nn(-c3ccccc3)cc2CN(C)C(C)c2ccon2)c1 (centres undefined) | inconclusive [inhibitor, single point] | 
CN(C)C(CNC(=O)c1cccc(S(=O)(=O)Nc2ccc(Br)cc2)c1)c1ccco1 (centres undefined) | inconclusive [inhibitor, single point] | 
O=C(Cn1c(=O)n(Cc2ccc(F)cc2)c(=O)c2sc3ccccc3c21)NCc1ccccc1 | inconclusive [inhibitor, single point] | 
COc1ccc(CCN(C)c2ccc(S(=O)(=O)N3CCCC3)cn2)cc1OC | inconclusive [inhibitor, single point] | 
Cc1cc(C)c(NC(=O)CSCc2nc3sc(C)c(C)c3c(=O)[nH]2)c(Cl)c1 | inconclusive [inhibitor, partial curve] | 
O=C(NC1CC2CCC(C1)N2C(=O)NCc1ccccc1)NC12CC3CC(CC(C3)C1)C2 (centres undefined) | inconclusive [inhibitor, partial curve] | 
COc1ccc(S(=O)(=O)N2CCC(C(=O)NCC(=O)Nc3c(C)cccc3C)CC2)cc1OC | inconclusive [inhibitor, partial curve] | 
COC(=O)c1ccc2c(=O)n(CCCCCC(=O)O)c(=S)[nH]c2c1 | inconclusive [inhibitor, partial curve, poor fit] | 
